In the antibiotic and cytotoxicity screens of Wong et al. (2023):
This is one part of the list.

test system: HSkMC (human skeletal muscle cells); assay: cytotoxicity call (relative viability < 0.9); conditions: 10 µM

Row | Compound | cytotoxicity call
1 | O=P([O-])(O)C(O)(Cc1cccnc1)P(=O)(O)O.[Na+] | inactive
2 | O=C1C=CC(=O)N1c1ccc(O)cc1 | active
3 | Cc1ccc(S(=O)(=O)N(C)C[C@H]2Oc3c(NS(=O)(=O)c4cccs4)cccc3C(=O)N([C@@H](C)CO)C[C@H]2C)cc1 | inactive
4 | COCC#Cc1ccc2c(c1)O[C@H](CN(C)S(=O)(=O)c1ccc(C)cc1)[C@H](C)CN([C@H](C)CO)S2(=O)=O | inactive
5 | C=CCNC(=O)[C@@H]1[C@H]2C(=O)O[C@H](c3ccccc3)[C@H](c3ccccc3)N2[C@H](c2ccc(O)cc2)[C@@]12C(=O)Nc1ccc(C#CC3=CCCCC3)cc12 | inactive
6 | Cc1ccc(S(=O)(=O)N(C)C[C@H]2Oc3c(NS(C)(=O)=O)cccc3C(=O)N([C@H](C)CO)C[C@@H]2C)cc1 | inactive
7 | COc1ccc(S(=O)(=O)N(C)C[C@H]2OCCCC[C@@H](C)Oc3ccc(NC(=O)Nc4ccccc4)cc3C(=O)N([C@H](C)CO)C[C@@H]2C)cc1 | inactive
8 | Cc1noc(C)c1S(=O)(=O)Nc1ccc2c(c1)CC(=O)N([C@@H](C)CO)C[C@H](C)[C@@H](CN(C)S(=O)(=O)c1ccc(F)cc1)O2 | inactive
9 | CN[C@@H]1[C@@H](O[C@H]2O[C@H](CO)[C@@H](N)[C@H](O)[C@H]2O)O[C@H]2C[C@@H](N)[C@H](O[C@H]3[C@H](O)[C@@H](O)[C@H](N)C[C@@H]3N)O[C@@H]2[C@@H]1O | inactive
10 | COc1ccc(-c2cccc(-c3ccc([C@H]4CC(=O)C[C@@H](c5ccccc5)C45C(=O)OC(C)(C)OC5=O)cc3)c2)cc1 | inactive
11 | C[C@H]1CN([C@@H](C)CO)C(=O)c2cc(NC(=O)Nc3ccccc3)ccc2O[C@H]1CN(C)Cc1ccc(C(F)(F)F)cc1 | inactive
12 | CCOC(N)=O | inactive
13 | C[C@H]1CN([C@@H](C)CO)C(=O)c2cccc(NC(=O)Nc3ccc4c(c3)OCO4)c2O[C@H]1CN(C)S(=O)(=O)c1cn(C)cn1 | inactive
14 | CN(C)CCCNC(=O)C[C@H]1CC[C@@H]2[C@H](COc3ccc(NC(=O)c4ccc5c(c4)OCO5)cc3C(=O)N2C)O1 | inactive
15 | CCNC(=O)[C@@H]1[C@@H](CO)[C@@H]2Cn3c(ccc(-c4cccc(C(=O)N(C)C)c4)c3=O)[C@H]1N2 | inactive
16 | CCC(=O)N1C[C@]2(CN(C2)C(=O)CN2CCOCC2)c2c([nH]c3cc(ccc23)OC)[C@@H]1CO | inactive

Row | Compound | cytotoxicity call
17 | CO[C@H]1CN(C)C(=O)c2ccc(NC(=O)c3ccccc3)cc2OC[C@H](C)N(C(=O)CN(C)C)C[C@@H]1C | inactive
18 | Nc1ncn(C[C@@H](O)CO)c2nc(Br)nc1-2 | inactive
19 | C[C@@H]1CN([C@@H](C)CO)C(=O)c2cc(NC(=O)C3CC3)ccc2O[C@@H]1CN(C)Cc1ccc2c(c1)OCO2 | inactive
20 | COC(CN(C)C(=O)c1cn(C)c2ccc(S(=O)(=O)N3CCOCC3)cc2c1=O)OC | inactive
21 | Cc1ccc(S(=O)(=O)Nc2ccc3c(c2)C(=O)N([C@@H](C)CO)C[C@H](C)[C@@H](CN(C)C(=O)Nc2ccc(C(F)(F)F)cc2)OCCCC[C@@H](C)O3)cc1 | inactive
22 | CC(C)(C)S(=O)N1Cc2cc(C(=O)NCc3ccc4c(c3)OCO4)nc(-c3cccc(C#CCC4CCCC4)c3)c2[C@H]1CCO (stereo partly specified) | inactive
23 | COc1ccc(NC(=O)Nc2ccc3c(c2)C(=O)N([C@H](C)CO)C[C@H](C)[C@H](CN(C)Cc2ccncc2)OCCCC[C@H](C)O3)cc1 | inactive
24 | CCCNC(=O)N[C@@H]1CC[C@H](CC(=O)N2CCN(C)CC2)O[C@@H]1CO | inactive
25 | C[C@H]1CN([C@@H](C)CO)C(=O)c2cc(NC(=O)Nc3cccc4ccccc34)ccc2O[C@@H]1CN(C)C(=O)Nc1ccc(F)cc1 | inactive
26 | COc1ccc(CN(C)C[C@@H]2OCCCC[C@H](C)Oc3ccc(NC(=O)NC(C)C)cc3C(=O)N([C@H](C)CO)C[C@@H]2C)cc1 | inactive
27 | CC(C)CC#Cc1ccc2c(c1)O[C@@H](CN(C)S(=O)(=O)c1ccc(F)cc1)[C@H](C)CN([C@@H](C)CO)S2(=O)=O | inactive
28 | C[C@@H]1CCCCO[C@H](CN(C)S(=O)(=O)c2cn(C)cn2)[C@H](C)CN([C@@H](C)CO)C(=O)c2cc(NS(=O)(=O)c3ccccc3)ccc2O1 | inactive
29 | C[C@H](CO)N1C[C@H](C)[C@H](CN(C)S(=O)(=O)c2cn(C)cn2)Oc2ncc(C#CC(C)(C)O)cc2C1=O | inactive
30 | Cc1c(-c2ccnn2C)cc(C(=O)NCc2ccc(S(C)(=O)=O)cn2)c(=O)n1-c1cccc(C(F)(F)F)c1 | inactive
31 | CO[C@H]1CN(C)C(=O)c2cc(NS(=O)(=O)c3cn(C)cn3)ccc2OC[C@H](C)N(Cc2cccc(F)c2)C[C@H]1C | inactive
